Test results from article PMC9108986, “Bioinformatic identification of previously unrecognized amyloidogenic proteins” (The Journal of Biological Chemistry, 2022).

B1: Recombinant full-length TRK-fused gene protein (TFG), WT sequence (natural protein, human)
chain: [about 200 residues left out]ASSSSAAHPPGVQPQQPPYTGAQTQAGQIEGQMYQQYQQQAGYGAQQPQAPPQQPQQYGIQYSASYSQQTGPQQPQQFQGYGQQPTSQAPAPAFSGQPQQLPAQPPQQYQASNYPAQTYTAQTSQPTNYTVAPASQPGMAPSQPGAYQPRPGFTSLPGSTMTPPPSGPNPYARNRPPFGQGYTQPGPGYR
notes: TRK-fused gene protein (TFG), human, full length; pet28b+ vector with a His tag, no mCherry; also called full-length TFG
B2: Recombinant full-length TFG, P285L (natural protein)
chain: not shown
notes: TRK-fused gene protein (TFG), human, full length, with the documented pathogenic mutation P285L; pet28b+ vector with a His tag, no mCherry; also called full-length TFG mutant P285L
B3: Recombinant full-length TFG, G269V (natural protein)
chain: not shown
notes: TRK-fused gene protein (TFG), human, full length, with the documented pathogenic mutation G269V; pet28b+ vector with a His tag, no mCherry; also called full-length TFG mutant G269V

Molecular target: the molecule itself
Test: amyloid fibre formation (thioflavin T aggregation assay); self-association into fibres; full-length TFG, same method as for the LCD but in 20 mM Tris (pH 8), 150 mM NaCl instead of PBS

Binding result, binds:
B1
B2
B3
